Binding data for two substances are collected here from PMC5650360, “Maslinic acid promotes autophagy by disrupting the interaction between Bcl2 and Beclin1 in rat pheochromocytoma PC12 cells” (Oncotarget, 2017).

The chains behind the UniProt entries cited, without tags or fusion partners. Where a name states a change or a piece, a line headed by the entry shows the natural chain unless it says otherwise. Residues count along the entry.
UniProt P49950, residues 1-156: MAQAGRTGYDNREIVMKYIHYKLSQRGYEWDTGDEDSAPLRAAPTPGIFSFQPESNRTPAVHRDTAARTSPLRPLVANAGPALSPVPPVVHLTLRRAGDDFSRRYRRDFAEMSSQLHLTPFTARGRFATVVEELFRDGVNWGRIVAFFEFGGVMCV
UniProt Q91XJ1: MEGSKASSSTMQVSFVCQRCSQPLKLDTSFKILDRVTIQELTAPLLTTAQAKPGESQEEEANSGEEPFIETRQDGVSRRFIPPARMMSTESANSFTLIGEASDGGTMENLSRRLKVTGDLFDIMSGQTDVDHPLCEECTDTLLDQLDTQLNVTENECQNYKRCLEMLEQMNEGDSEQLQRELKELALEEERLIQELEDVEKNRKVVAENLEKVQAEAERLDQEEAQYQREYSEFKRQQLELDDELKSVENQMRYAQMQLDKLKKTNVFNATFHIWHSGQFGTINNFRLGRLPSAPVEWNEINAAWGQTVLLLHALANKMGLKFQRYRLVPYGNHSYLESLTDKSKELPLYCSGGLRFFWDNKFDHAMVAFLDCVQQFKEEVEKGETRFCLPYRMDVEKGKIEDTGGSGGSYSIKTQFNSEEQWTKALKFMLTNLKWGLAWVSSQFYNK

Assay [1] deals with GFP-tagged rat Bcl2 (residues 1-156) (rat) (UniProt P49950). Briefly: co-IP; PC12 cells transfected with GFP-tagged Bcl2, lysate precipitated with GFP antibody and Dynabeads protein G, blot for endogenous Beclin1; without MA.
The target is the same in assay [2]. The experiment in a line: condition: only cells treated with 10 uM MA for 12 hours; co-IP; as a9 but the cells were treated with 10 uM MA for 12 hours.
Assay [3] addresses BH3 motif containing region of rat Bcl2 (residues 1-156), un-tagged version (rat) (UniProt P49950). Briefly: ITC; 200 μM Beclin1 titrated into 20 μM Bcl2 containing 10 μM MA, 50 mM Tris pH 8.0, 150 mM NaCl; both purified. (In ITC the heat of successive injections is recorded.)
Assay [4] has the same target. The experiment in a line: SEC-MALS; as a3 but with a final concentration of 10 μM MA; both purified.
The target is the same in assay [5]. Briefly: dynamic light scattering; as a5 but with a final concentration of 10 μM MA; both purified.
In assay [6] the target is GST-tagged rat Bcl2 (residues 1-156) (rat) (UniProt P49950). The experiment in a line: condition: only in the presence of MA (20 μM and 10 μM tested); pull-down; as a1 but in the presence of MA (20 μM and 10 μM tested); both purified.

No constants are given. Whether binding was seen depends on the method and setting. For part of these data: In cells and extracts the contact can be indirect. Some results given as binding are weak or reduced against the parent protein; the word gives no strength.

In the case of “endogenous Beclin1 of PC12 cells (from UniProt Q91XJ1 1-448)”, the binding result in assay [1] was “binds”; in assay [2] it was “no binding”.

On to “rat Beclin1 BH3 domain and Coiled Coil domain (residues 100-266) (from UniProt Q91XJ1 100-266) (domain or fragment)”, for which the binding result is listed as “no binding (condition: with 10 μM MA)” in assay [3], “no binding (condition: with 10 μM MA)” in assay [4], “no binding (condition: with 10 μM MA)” in assay [5] and “no binding” in assay [6].
